In all, about 150,000 compounds went through this assay and about 540 (0.36%) showed an effect of 50% or more. Some of the results follow.

For this experiment, the system named is Plasmodium falciparum. Briefly: Primary screen in NF54 nanoGlo assay, in single point, at 2uM, 72h; a lower Z score goes with more inhibition. The format is functional, Erythrocyte. Particulars: timepoint 72 hour.
As to `Cc1ccc(NC(=O)N2CC(Cc3ccoc3)C2)c2[nH]ncc12`, the “% Inhibition” value is listed as -5% and the Z score was determined as 0.57.
Regarding `CS(=O)(=O)CC[C@@H](C(=O)NC1CCCC1)N1C(=O)c2ccc(Br)cc2C1=O`, the “% Inhibition” value was -7% and the Z score came out at 1.21.
As to `Cc1nnc(N(C)Cc2ccc(O)cc2)s1`, the “% Inhibition” value is reported as -4% and the Z score was found to be 0.37.
Taken in the same sequence, the figures for `CC1CC(NC(=O)C2CC(O)CN2)CN1C1CC1` (stereo unspecified) were -1% and 0.11.
Consider `O=C(Nc1ccccc1-c1nc2ccccc2s1)[C@@H]1Cc2ccccc2O1`, for which the “% Inhibition” value was -1% and the Z score stood at 0.08.
With `COc1ccc(F)c(NC(=O)N(CCO)C(C)C)c1`, the “% Inhibition” value worked out at 37% and the Z score is on record as -0.92.
Turning to `O=C(NCc1ccccc1-c1ccsc1)c1ccno1`, the “% Inhibition” value is given as -6% and the Z score was determined as 1.17.
Taken in the same sequence, the figures for `CCOc1ccc(CN2C[C@@H](CO)[C@H](NC(=O)c3ccncc3)C2)cc1` were -28% and 4.76.
Taken in the same sequence, the figures for `COc1ccc(Nc2nc(N3CCN(c4nc(-c5ccc(F)cc5)cs4)CC3)nc3ccccc23)c(OC)c1` were 4% and -0.55.
As to `CC[C@H](OC1CCCCC1)C(=O)NCc1nnc(C(C)(C)C)s1`, the “% Inhibition” value amounted to 10% and the Z score is given as -1.74.
For `Cc1ccc(C(=O)N(CC(N)=O)CC(C)C)c(Br)c1`, the “% Inhibition” value is recorded as -15% and the Z score is 2.11.
For the molecule `O=C1CCc2cc(S(=O)(=O)N3CCCC[C@@H]3Cn3ccnn3)ccc2N1`, the “% Inhibition” value is -10% and the Z score was determined as 1.23.
`CCOCC1CCN(C[C@H]2CCCN2C(=O)OC(C)(C)C)C1` (stereo partly specified): the “% Inhibition” value is listed as -10% and the Z score came to 1.97.
In the case of `CC1CCN(S(=O)(=O)c2ccc3c(c2)CCC(=O)N3CC(=O)Nc2cccnc2)CC1`, the “% Inhibition” value is -4% and the Z score is on record as 0.73.
Take `C=CCN(C(=O)c1ccnc(C)n1)c1nc2c(s1)CCCC2`: the “% Inhibition” value was -30% and the Z score stood at 3.48.
For `CN1CCN(C(=O)C2C3CCCC32)C(C)(C)C1=O` (stereo unspecified), the “% Inhibition” value was -3% and the Z score was found to be 0.45.
Taken in the same sequence, the figures for `CCn1c(-c2cc(NC(=O)c3ccsc3)[nH]n2)cc2ccc(OC)cc21` were 14% and -1.63.
For `CC[C@@](C)(CCO)NC(=O)NC1CC1`, the “% Inhibition” value is on record as -3% and the Z score is 0.47.
Taken in the same sequence, the figures for `CC1(C)CC(=O)C2(Cc3ccccc3N3CCN(c4cccc(Cl)c4)C[C@H]32)C(=O)C1` were 28% and -3.2.
Taken in the same sequence, the figures for `Cc1ccc(CNc2nnc(-c3cc(C)oc3C)o2)o1` were 0% and 0.04.
Taken in the same sequence, the figures for `COc1cccc(-c2n[nH]c(C3CC3)c2NC(=O)c2ccc(C(F)(F)F)cc2)c1` were -11% and 1.94.
Consider `CN(CCc1cnccn1)c1ccc(Br)c(C(F)(F)F)n1`, for which the “% Inhibition” value was -7% and the Z score was determined as 1.33.
Taken in the same sequence, the figures for `CCCCN(CC)C(=O)[C@@H]1Cc2[nH]cnc2C2(CCOCC2)N1` were -9% and 1.45.

The record behind these values is ChEMBL document CHEMBL4888484, “Replenishing the malaria drug discovery pipeline: Screening and hit evaluation of the MMV Hit Generation Library 1 (HGL1) against asexual blood stage Plasmodium falciparum ,using a nano luciferase reporter read-out” (2022).
